Reference: PubChem BioAssay (NCATS)
Where “and” joins values, the source holds several entries; their conditions need not be identical. Equal values may be shown once. Inconclusive means that the source gave no clear call. Such entries were picked first, then a sample of the others. For some assays here: A potency beside an inconclusive call is a rough fit, not a confirmed value. Calls of active or inactive are those of the source. Calls follow the shape of the dose curve; as a rule, active = well fitted curve in the direction sought with a large enough effect; inconclusive = small, poorly fitted or top-dose-only effect, or another doubt; inactive = no such curve, though single readings can be large; an effect the other way counts as inactive or inconclusive. *1 amine or outer side, *2 acyl side, *3 side chain or, on linkers, in order; H or OH if unused. Where a SMILES comes first, the peptide text is derived from it. Bridges are numbered along the chain shown (N, C = ends). Roman numbers before positions name the chains, in order. [ ]: non-standard residue; d: D form. Actinocin(9to1) = Cc1c2oc3c(C)ccc(C(=O)[*:1])c3nc-2c(C(=O)[*:2])c(N)c1=O; NMeV = CN[CH](C(=O)O)C(C)C; Sar = CNCC(=O)O

Key:
[1] = P-glycoprotein substrates identified in KB-8-5-11 adenocarcinoma cell line, qHTS therapeutic library screen (AID 1346987); also: nearly all actives have a fitted effect of over 65% in size; also: potency is read from the fitted curve at half-maximal effect; as to activity change, negative = cytotoxicity: % is scaled to controls: 0 for no effect and ±100 for the full control effect
Outline: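 Luminescence from CellTiter-Glo, read 5 min after addition, quantified survival of KB-8-5-11 (P-gp-overexpressing) cells exposed to compounds for 72 h. AC50 was derived from concentration-response curves.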

HaCat = experiment: Cytotoxic Profiling of Annotated Libraries Using Quantitative High-Throughput Screening (AID 1296008); settings: Five cell lines viability, CellTiter-Glo ATP luminescence, 48-72 h; max response: active compounds read low; also: nearly all actives have a fitted effect of over 60% in size; also: potency is read from the fitted curve at half-maximal effect; as to max response: % is scaled to controls: 0 for no effect and ±100 for the full control effect
Outline: (§1)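 Cells exposed to compounds for 48 or 72 hr at 37 degrees Celsius. Viability read as ATP-coupled luminescence with CellTiter-Glo after 10 min at room temperature.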

KB-3-1 = experiment: as above; settings: Five cell lines viability, CellTiter-Glo ATP luminescence, 48-72 h; max response: active compounds read low
Outline: as §1

PA-1 = experiment: Primary qHTS to identify gynecologic anti-cancer compounds using libraries of approved drugs and bioactive compounds (AID 1345084); settings: Gynecologic cancer cell panel viability, ATPlite luminescence, 48 h; series mostly up to 57.5 µM; also: nearly all actives have a fitted effect of over 55% in size; also: potency is read from the fitted curve at half-maximal effect; as to activity change, negative = cytotoxicity: % is scaled to controls: 0 for no effect and ±100 for the full control effect
Outline: (§2)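 Five-concentration response, 48 h; readout is ATP-driven luciferase luminescence.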

[2] = Primary qHTS for inhibitors of nuclear receptor binding SET domain protein 2 (NSD2) in an isogenic RCH-ACV NSD2 p.E1099K mutant (9B) (AID 1645876); also: potency is read from the fitted curve at half-maximal effect; nearly all actives have a fitted effect of over 70% in size
[3] = Primary fluorescence-based thiol-reactive (MSTI) qHTS assay for identification of artifact compounds. (AID 1845221); also: potency is read from the fitted curve at half-maximal effect;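 also: thiol-reactive compounds lower the probe fluorescence signal; nearly all actives have a fitted effect of over 65% in size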
Outline: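 In PBS pH 7.4 with 2% DMSO, each compound met 4 uM MSTI for one hour at ambient temperature, shielded from light, before fluorescence detection.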

NIH3T3 = experiment: Cytotoxic Profiling of Annotated Libraries Using Quantitative High-Throughput Screening (AID 1296008); settings: Five cell lines viability, CellTiter-Glo ATP luminescence, 48-72 h; max response: active compounds read low; also: nearly all actives have a fitted effect of over 60% in size; also: potency is read from the fitted curve at half-maximal effect; as to max response: % is scaled to controls: 0 for no effect and ±100 for the full control effect
Outline: as §1

C33A = experiment: Primary qHTS to identify gynecologic anti-cancer compounds using libraries of approved drugs and bioactive compounds (AID 1345084); settings: Gynecologic cancer cell panel viability, ATPlite luminescence, 48 h; series mostly up to 57.5 µM; also: nearly all actives have a fitted effect of over 55% in size; also: potency is read from the fitted curve at half-maximal effect
Outline: as §2

CAOV3 = experiment: as above; settings: Gynecologic cancer cell panel viability, ATPlite luminescence, 48 h; activity change, negative = cytotoxicity: at 57.5 µM (top of the series)
Outline: as §2

CASKI = experiment: as above; settings: Gynecologic cancer cell panel viability, ATPlite luminescence, 48 h; series mostly up to 57.5 µM
Outline: as §2

Es-2 = experiment: as above; settings: Gynecologic cancer cell panel viability, ATPlite luminescence, 48 h; series mostly up to 57.5 µM
Outline: as §2

HeLa = experiment: as above; settings: Gynecologic cancer cell panel viability, ATPlite luminescence, 48 h; activity change, negative = cytotoxicity: at 57.5 µM (top of the series)
Outline: as §2

Hek293T = experiment: as above; settings: Gynecologic cancer cell panel viability, ATPlite luminescence, 48 h, control line for the selectivity index; activity change, negative = cytotoxicity: at 57.5 µM (top of the series) unless noted
Outline: as §2

JEG-3 = experiment: as above; settings: Gynecologic cancer cell panel viability, ATPlite luminescence, 48 h; series mostly up to 57.5 µM
Outline: as §2

OV90 = experiment: as above; settings: Gynecologic cancer cell panel viability, ATPlite luminescence, 48 h; series mostly up to 57.5 µM
Outline: as §2

SKOV3 = experiment: as above; settings: Gynecologic cancer cell panel viability, ATPlite luminescence, 48 h; series mostly up to 57.5 µM
Outline: as §2

Tov-21-G = experiment: as above; settings: Gynecologic cancer cell panel viability, ATPlite luminescence, 48 h; activity change, negative = cytotoxicity: at 57.5 µM (top of the series) unless noted
Outline: as §2

[4] = Primary qHTS for inhibitors of nuclear receptor binding SET domain protein 2 (NSD2) in an RCH-ACV wild type WT cells (2C) (AID 1645877); settings: activity change, negative = cell killing: at 44.9 µM (top of the series) unless noted; also: nearly all actives have a fitted effect of over 70% in size; also: potency is read from the fitted curve at half-maximal effect
Tov112D = experiment: Primary qHTS to identify gynecologic anti-cancer compounds using libraries of approved drugs and bioactive compounds (AID 1345084); settings: Gynecologic cancer cell panel viability, ATPlite luminescence, 48 h; series mostly up to 57.5 µM; also: nearly all actives have a fitted effect of over 55% in size; also: potency is read from the fitted curve at half-maximal effect
Outline: as §2

[5] = Primary redox qHTS assay for identification of artifact compounds. (AID 1845223); settings: Amplex Red/HRP redox cycling with DTT, fluorescence; redox activity (% of DA3003): at 53.8 µM (top of the series);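 also: 0% = DMSO and 100% = reference compound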
Outline: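 Redox-cycling detection via DTT (250 uM final) oxidation coupled to Amplex Red (25 uM)/HRP (250 mU/mL) in HBSS. 15 min preincubation plus 30 min after DTT, room temperature. Ex/Em 525/598 nm; 4-parameter Hill fit against DMSO and 10 uM DA3003.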
Tags tell the direction and shape of the fitted curve.

NC(CO)(CO)CO
inconclusive: Potency (HaCat) 29.9 µM [inhibitor, single point]
inactive: Potency [1] | max response (KB-3-1) 3.6% | Potency (PA-1)

COc1cc2c(NC3CCN(C(C)C)CC3)nc(C3CCCCC3)nc2cc1OCCCN1CCCC1
inconclusive: Potency [1] 37.2 µM [inhibitor, single point] and 20.6 µM [inhibitor, single point] | Potency (HaCat) 29.1 µM [inhibitor, single point] | Potency (NIH3T3) 37.2 µM [inhibitor, single point] | Potency (Es-2) 31.6 µM [cytotoxic, single point] | Potency (HeLa) 39.8 µM [cytotoxic, single point] | Potency (Hek293T) 39.8 µM [cytotoxic, single point] | Potency (Tov-21-G) 28.2 µM [cytotoxic, single point]
inactive: Potency [3]
active: Potency [2] 9.16 µM and 8.33 µM | Potency (C33A) 28.2 µM | Potency (CAOV3) 6.31 µM | Potency (CASKI) 20 µM | Potency (JEG-3) 10 µM | Potency (OV90) 11.2 µM | Potency (PA-1) 31.6 µM | Potency (SKOV3) 12.6 µM

CCCCc1ncc(/C=C(\Cc2cccs2)C(=O)O)n1Cc1ccc(C(=O)O)cc1
inactive: max response (NIH3T3) -1.7% | Potency (Tov-21-G)
inconclusive: Potency (HaCat) 33.5 µM [inhibitor, partial curve, poor fit] | Potency (NIH3T3) 29.9 µM [inhibitor, single point]

CCC(CC)C(c1ccc(Nc2nc3ccccc3s2)cc1)n1cncn1 (stereo not given)
inconclusive: Potency (HaCat) 9.2 µM [inhibitor, partial curve] | Potency (NIH3T3) 29.1 µM [inhibitor, single point] | Potency (CASKI) 39.8 µM [cytotoxic, single point] | Potency (Es-2) 39.8 µM [cytotoxic, single point] | Potency (Hek293T) 17.8 µM [cytotoxic, partial curve] | Potency (SKOV3) 35.5 µM [cytotoxic, single point] | Potency (Tov-21-G) 39.8 µM [cytotoxic, single point]
active: Potency [1] 23.1 µM | Potency [4] 18.6 µM | Potency (C33A) 25.1 µM | Potency (CAOV3) 28.2 µM | Potency (JEG-3) 31.6 µM | Potency (OV90) 31.6 µM | Potency (Tov112D) 22.4 µM

O=C(Nc1ccc([N+](=O)[O-])cc1)Nc1ccc([N+](=O)[O-])cc1
inactive: Potency [4] | outcome (HaCat) | Potency (Es-2)
inconclusive: Potency (NIH3T3) 33.5 µM [inhibitor, partial curve, poor fit]

COc1ccc(C(=O)c2ccccc2)c(O)c1
inactive: max response (NIH3T3) 2.73% | Potency (OV90)
inconclusive: Potency [2] 33.5 µM [inhibitor, single point] | Potency [4] 33.5 µM [inhibitor, single point] | Potency (HaCat) 4.22 µM [inhibitor, single point]

CC[C@H]1CN(c2nc(N)c(C(N)=O)nc2Cl)CCN1C1CCN(Cc2ccc(Cl)cc2)CC1
inconclusive: Potency (KB-3-1) 18.4 µM [inhibitor, partial curve, poor fit]
inactive: Potency [4] | outcome (HaCat)

c1cc(Nc2cc(C3CC3)[nH]n2)nc(Nc2ccc3nc[nH]c3c2)n1
active: Potency [1] 6.51 µM | Potency [2] 0.417 µM | Potency (CASKI) 1.78 µM | Potency (PA-1) 3.98 µM | Potency (Tov112D) 1.12 µM
inconclusive: Potency [3] 2.67 µM [inhibitor, full curve] | Potency (HaCat) 23.1 µM [inhibitor, single point] | Potency (NIH3T3) 29.1 µM [inhibitor, single point] | Potency (C33A) 0.891 µM [cytotoxic, full curve, poor fit] | Potency (CAOV3) 0.631 µM [cytotoxic, full curve] | Potency (HeLa) 2 µM [cytotoxic, full curve, poor fit] | Potency (Hek293T) 5.62 µM [cytotoxic, full curve] | Potency (OV90) 1.12 µM [cytotoxic, partial curve, poor fit] | Potency (SKOV3) 1.12 µM [cytotoxic, full curve, poor fit] | Potency (Tov-21-G) 3.55 µM [cytotoxic, full curve]

O=C1C[C@]23C=CCN4CCC5c6cc7c(cc6N1[C@@]5(CC2)C43)OCO7 (stereo not given in full)
inconclusive: Potency [1] 20.2 µM [inhibitor, single point] | Potency [2] 17.9 µM [inhibitor, single point] | Potency [4] 14.2 µM [inhibitor, single point] | Potency [3] 3.69 µM [inhibitor, partial curve, poor fit] | Potency (HaCat) 20.2 µM [inhibitor, single point] | Potency (KB-3-1) 14.3 µM [inhibitor, single point] | Potency (SKOV3) 11.2 µM [cytotoxic, single point] | Potency (Tov-21-G) 10 µM | Potency (Tov112D) 31.6 µM [cytotoxic, single point]

CCN1CCCC1CN (stereo not given)
inconclusive: Potency (HaCat) 0.75 µM [inhibitor, full curve]
inactive: max response (NIH3T3) -1.87% | Potency (C33A) | Potency (OV90)

C=C1C[C@]23C[C@H]1[C@@H](O)C[C@H]2[C@@]12C=C[C@H](O)[C@@](C)(C(=O)O1)[C@H]2[C@@H]3C(=O)O
inactive: Potency [5] | max response (HaCat) -32.5% | max response (KB-3-1) -2.31% | Potency (Tov112D)

CN(C)c1ccc(C(=O)NCCCCCCC(=O)NO)cc1
active: Potency (HaCat) 4.69 µM | Potency (NIH3T3) 3.72 µM

COC(=O)[C@H]1[C@H]2C[C@@H]3c4[nH]c5cc(OC)ccc5c4CCN3C[C@H]2C[C@@H](OC(=O)/C=C/c2ccc(O)c(OC)c2)[C@@H]1OC
active: Potency (OV90) 31.6 µM | Potency (SKOV3) 35.5 µM
inconclusive: Potency (HaCat) 33.5 µM [inhibitor, single point] | Potency (NIH3T3) 29.9 µM [inhibitor, single point] | Potency (CAOV3) 31.6 µM [cytotoxic, single point] | Potency (JEG-3) 39.8 µM [cytotoxic, single point] | Potency (Tov-21-G) 39.8 µM [cytotoxic, single point]

Nc1ccc(-c2cccc3c(=O)cc(N4CCOCC4)oc23)cc1
active: Potency (HaCat) 6.51 µM | Potency (NIH3T3) 8.2 µM | Potency (CASKI) 12.6 µM | Potency (OV90) 11.2 µM
inconclusive: Potency [3] 13.4 µM [inhibitor, partial curve, poor fit] | Potency (C33A) 31.6 µM [cytotoxic, single point] | Potency (CAOV3) 17.8 µM [cytotoxic, partial curve, poor fit] | Potency (Es-2) 31.6 µM [cytotoxic, partial curve, poor fit] | Potency (HeLa) 25.1 µM [cytotoxic, single point] | Potency (Hek293T) 35.5 µM [cytotoxic, single point] | Potency (PA-1) 28.2 µM [cytotoxic, single point] | Potency (SKOV3) 14.1 µM [cytotoxic, partial curve, poor fit] | Potency (Tov-21-G) 25.1 µM [cytotoxic, single point] | Potency (Tov112D) 11.2 µM [cytotoxic, partial curve]

O=C(Nc1cccnn1)N1CCN(c2nccc(-c3ccc(F)c(F)c3)n2)CC1
inconclusive: Potency [1] 28.2 µM [inhibitor, partial curve] | Potency (HaCat) 12.6 µM [inhibitor, full curve] | Potency (KB-3-1) 39.8 µM [inhibitor, single point] | Potency (SKOV3) 14.1 µM [rising, full curve, poor fit]
inactive: Potency [5]

COC(=O)C12CCC(C)C(C)C1C1=CCC3C4(C)CCC(OC(C)=O)C(C)(C)C4CCC3(C)C1(C)CC2 (stereo not given)
inconclusive: Potency (HaCat) 0.0563 µM [inhibitor, full curve]
inactive: max response (KB-3-1) 5.8% | Potency (Tov-21-G)

CC(C)(C)NC(=O)[C@H]1CN(Cc2cccnc2)CCN1C[C@@H](O)C[C@@H](Cc1ccccc1)C(=O)N[C@H]1c2ccccc2C[C@H]1O
inconclusive: Potency (HaCat) 37.2 µM [inhibitor, single point] | Potency (NIH3T3) 29.6 µM [inhibitor, single point]

O=C(c1ccc(F)cc1)C1CCN(CCn2c(=S)[nH]c3ccccc3c2=O)CC1
inactive: max response (NIH3T3) -46.6% | Potency (OV90)
inconclusive: Potency [2] 33.5 µM [inhibitor, single point] | Potency [4] 29.9 µM [inhibitor, single point] | Potency (HaCat) 0.237 µM [inhibitor, full curve, poor fit] | Potency (PA-1) 39.8 µM [cytotoxic, partial curve, poor fit]

Cc1c2oc3c(C)ccc(C(=O)NC4C(=O)NC(C(C)C)C(=O)N5CCCC5C(=O)N(C)CC(=O)N(C)C(C(C)C)C(=O)OC4C)c3nc-2c(C(=O)NC2C(=O)NC(C(C)C)C(=O)N3CCCC3C(=O)N(C)CC(=O)N(C)C(C(C)C)C(=O)OC2C)c(N)c1=O (stereo not given) (I: TVP[Sar][NMeV] / II: TVP[Sar][NMeV]; ester I:1-I:C, II:1-II:C; linker I:N-II:N via Actinocin(9to1); configuration not given here)
active: Potency [1] 0.187 µM | Potency [4] 0.0006 µM | Potency (KB-3-1) 6.62e-05 µM
inactive: max response (HaCat) -104%
